Test results: PubChem BioAssay AID588855 (National Center for Advancing Translational Sciences (NCATS), 2011)
Values joined by “and” are separate entries in the source; they are usually repeats but may differ in a detail not shown here. Equal values may be shown once. The whole screen tested about 410,000 compounds, of which about 5,000 (1.2%) were called active. Inconclusive means that the source gave no clear call. Such entries were picked first, then a sample of the others. Calls follow the shape of the dose curve; as a rule, active = well fitted inhibition curve with a large enough effect; inconclusive = small, poorly fitted or top-dose-only effect; inactive = no such curve, though single readings can be large or run the other way. Where the call is inconclusive, the potency comes from a doubtful curve fit.

Test: qHTS for Inhibitors of TGF-b; also: nearly all actives have a fitted effect of over 65% in size
Conditions: HepG2 CAGA-GFP TGF-b/SMAD3 reporter, GFP fluorescence, 18 h, TGF-beta stimulated, 500 pg/mL final; series mostly up to 46.1 µM
Method in brief: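 HEPG2 CAGA-GFP reporter cells (1000/well, DMEM with 1% FBS) received compounds, then recombinant TGF-beta at 500 pg/mL final for 18 hours at 37 degrees C. Per-cell GFP summed per well was normalised to unstimulated and stimulated DMSO controls before curve fitting.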
Potency is read from the fitted curve at half-maximal effect; tags tell the direction and shape of the fitted curve.

SMILES | Potency
CC(=O)Nc1ccc2c(c1)nc(CCNC(=O)c1ccccc1)n2C | inconclusive: 5.62 µM [inhibitor, single point]
COc1ccc(CCNC(=O)CN2c3cccc4cccc(c34)S2(=O)=O)cc1 | inactive
O=C(NC(=S)N(CCc1ccccc1)CCc1ccccc1)c1ccco1 | inconclusive: 25.1 µM [inhibitor, single point]
COc1ccccc1CNC(=O)C1CCN(c2nc3ccc(Cl)cc3[nH]2)CC1 | inactive
COc1ccc(N2CCN(C(CNS(=O)(=O)c3ccc(C)cc3)c3ccccc3)CC2)cc1 (stereo not drawn) | inconclusive: 35.5 µM [inhibitor, single point]
CCCS(=O)(=O)c1nc(S(=O)(=O)c2ccc(C)cc2)c(N2CCN(CC)CC2)s1 | inactive
CC(C)(O)C#Cc1ccc(CN2CCCC(CO)(Cc3cccc(Cl)c3)C2)cc1 (stereo not drawn) | inconclusive: 31.6 µM [inhibitor, single point]
CCc1ccc(NC(=O)c2noc3c2CCC3)cc1 | inconclusive: 3.16 µM [inhibitor, single point]
O=C(Cn1c(SCc2ccccc2)nc2ccccc21)N1CCOCC1 | inconclusive: 12.6 µM [inhibitor, partial curve, poor fit]
CCOP(=O)(Cc1ccc(C(C)(C)CC(C)=O)o1)OCC | inactive
CN1CCCC(CC2Oc3ccccc3Sc3ccccc32)C1 (stereo not drawn) | inconclusive: 25.1 µM [inhibitor, single point]
Cc1cccc(OCC(=O)NCC(=O)N/N=C/c2ccc(O)cc2O)c1 | inconclusive: 3.55 µM [inhibitor, single point]
CC(C)(C)NC(=O)COC(=O)c1snc(C(=O)NC2CCCCC2)c1N | inconclusive: 35.5 µM [inhibitor, single point]
CCCCC(=O)NC(c1cccc([N+](=O)[O-])c1)c1c(OC(C)=O)ccc2ccccc12 (stereo not drawn) | inconclusive: 35.5 µM [inhibitor, partial curve, poor fit]
COc1cccc(OCCn2cc(/C=N/NC(=O)c3ccncc3)c3ccccc32)c1 | inconclusive: 11.2 µM [inhibitor, partial curve, poor fit]
COc1ccc(Cl)cc1-c1nc(SCC(=O)NC2CCCC2)n[nH]1 | inconclusive: 35.5 µM [inhibitor, single point]
Cc1ccccc1OCC(=O)NNC(=S)NC(=O)c1ccco1 | inactive
CCCCNC(=O)c1onc(CSc2ccc(Cl)cc2)c1C(=O)O | inconclusive: 3.98 µM [inhibitor, single point]
COc1cccc(Cn2cc(C(=O)c3ccccc3)c(=O)c3cc4c(cc32)OCO4)c1 | inactive
Cc1cccc(N2CCN(C(c3ccccc3)c3nnnn3CC3CCCO3)CC2)c1C (stereo not drawn) | inconclusive: 35.5 µM [inhibitor, single point]
Cc1ccc2[nH]c(=O)c(CN(Cc3cccs3)Cc3nnnn3Cc3ccco3)cc2c1 | inconclusive: 15.8 µM [inhibitor, single point]
CC(OC(=O)Cc1n[nH]c(=O)c2ccccc12)C(=O)Nc1cc(Cl)cc(Cl)c1 (stereo not drawn) | inconclusive: 14.1 µM [inhibitor, single point]
Oc1ccc2ccccc2c1N=Nc1ccccc1F | inconclusive: 8.91 µM [inhibitor, partial curve]

SMILES | Potency
CCCCNC(=O)C1CCCN(S(=O)(=O)CCC)C1 (stereo not drawn) | inactive
COc1ccc(OC)c(-n2c(Cn3c(-c4ccccn4)nc4ccccc43)n[nH]c2=S)c1 | inactive
O=C(CCc1nc(CN2CCN(S(=O)(=O)c3ccc(Br)cc3)CC2)no1)N1CCCCC1 | inconclusive: 35.5 µM [inhibitor, partial curve, poor fit]
COc1ccc(C(CNC(=O)c2cccc(S(=O)(=O)NCc3ccccc3)c2)N2CCOCC2)cc1 (stereo not drawn) | inactive
O=C(Nc1ccncc1)C1CCN(S(=O)(=O)c2ccccc2C(F)(F)F)CC1 | inactive
COc1ccc(N2C(=O)CC(SCCc3nc4ccccc4[nH]3)C2=O)cc1 (stereo not drawn) | inconclusive: 12.6 µM [inhibitor, single point]
COc1cc(C(=O)N2CCCCC2c2cc(C(=O)Nc3ccccc3Cl)no2)cc(OC)c1C (stereo not drawn) | inconclusive: 25.1 µM [inhibitor, single point]
CCCCN(C)c1c(C)nc2ccc(C(=O)NCc3cccs3)cn12 | inactive
COc1cc(O)c(C(CC(=O)N2CCN(c3ccccc3)CC2)c2ccc3c(c2)OCO3)c(OC)c1 (stereo not drawn) | inconclusive: 35.5 µM [inhibitor, single point] and inconclusive: 7.08 µM [inhibitor, full curve]
O=C(CCl)Nc1cn(-c2ccccc2)nc1-c1ccccc1 | inconclusive: 20 µM [inhibitor, single point]
O=C(CCl)c1ccc2c(c1)CCN2C(=O)C1CCCCC1 | inconclusive: 12.6 µM [inhibitor, single point]
C=CCn1c(=NC(=O)CN2C(=O)CCC2=O)sc2cccc(OC)c21 | inactive
CCOC(=O)c1c(N)sc(C(=O)Nc2ccccc2)c1C | inactive
O=[N+]([O-])c1cccc(-c2noc(-c3ccco3)n2)c1 | inactive
O=C1CC(c2ccccc2)Sc2ccccc2N1Cc1ccc(F)cc1 (stereo not drawn) | inconclusive: 35.5 µM [inhibitor, single point]
O[C@H]1C[C@H](c2ccccc2)N(CC2CCCCC2)C[C@@H]1n1cc(C2CC2)nn1 | inconclusive: 22.4 µM [inhibitor, single point]
CSc1ncccc1C(=O)NCC(c1cccs1)N1CCOCC1 (stereo not drawn) | inconclusive: 35.5 µM [inhibitor, partial curve, poor fit]
CC(C)(CNC(=O)c1ccc(S(=O)(=O)Nc2ccccc2F)cc1)N1CCOCC1 | inactive
CC(C(=O)N1CCN(Cc2ccc3c(c2)OCO3)CC1)c1ccc([N+](=O)[O-])cc1 (stereo not drawn) | inconclusive: 5.62 µM [inhibitor, single point]
COc1ccc(NC(=O)C2CCCN(S(C)(=O)=O)C2)cc1Cl (stereo not drawn) | inactive
CC(C)C[C@H](NC(=O)c1nc[nH]c1C(=O)N1CCC(C)CC1)C(=O)OCc1ccccc1 | inconclusive: 35.5 µM [inhibitor, single point]
Cc1cc(C)c(NC(=O)CSc2ccc(-c3ccccn3)nn2)c(C)c1 | inactive
COc1ccc(/C=C2\SC(=O)N(CC(=O)Nc3cccc(C)c3)C2=O)cc1O | inactive

SMILES | Potency
Cc1[nH]c2ccccc2c1C(=O)CN1C(=O)NC2(CCCCCC2)C1=O | inconclusive: 35.5 µM [inhibitor, single point]
Cn1c(N)c(C(=O)COC(=O)C2CCC(C(C)(C)C)CC2)c(=O)n(C)c1=O (stereo not drawn) | inconclusive: 5.62 µM [inhibitor, single point]
CC(=O)Nc1ccc(S(=O)(=O)Oc2ccccc2N2CCCCC2)cc1 | inconclusive: 22.4 µM [inhibitor, partial curve, poor fit]
C=CC[C@@H](CC(=O)N[C@@H](CO)Cc1ccccc1)C(=O)N[C@@H](COC(=O)[C@@H](CC=C)Cc1ccc(F)cc1)Cc1ccccc1 | inconclusive: 5.62 µM [inhibitor, single point]
CN(Cc1ccccc1)C(=O)COC(=O)c1cc([N+](=O)[O-])ccc1N1CCOCC1 | inconclusive: 20 µM [inhibitor, partial curve, poor fit]
COc1cc(CNc2ccc(N3CCOCC3)c(C(=O)O)c2)ccc1OCC(N)=O | inactive
COC(=O)c1c(NC(=O)COC(=O)[C@@H](NS(=O)(=O)c2ccccc2)C(C)C)sc2c1CCC2 | inconclusive: 35.5 µM [inhibitor, single point]
COCCc1nn2c(=O)cc(COC(=O)C(c3ccccc3)c3ccccc3)nc2s1 | inactive
CCc1ccc(NC(=O)CC2C(=O)N(c3cccc(C)c3)C(=O)N2Cc2ccc(F)cc2)cc1 (stereo not drawn) | inconclusive: 25.1 µM [inhibitor, single point]
CCOC(=O)C1(C)C=C(Nc2ccc(NC(C)=O)cc2)C(=O)N1c1ccc(NC(C)=O)cc1 (stereo not drawn) | inactive
O=S(=O)(c1ccc(SCCOc2ccccc2)nc1)N1CCCC1 | inconclusive: 22.4 µM [inhibitor, single point]
N#Cc1ccccc1Sc1ccccc1C(=O)NCC(c1ccco1)N1CCCCC1 (stereo not drawn) | inactive
Cc1nc2ccn(Cc3ccccc3)c(=O)c2cc1C(=O)N1CCN(c2ccc(F)cc2)CC1 | inactive
c1ccc2sc(Sc3ncnc4sccc34)nc2c1 | inconclusive: 17.8 µM [inhibitor, single point]
COc1ccccc1NC(=O)Cn1c(SCC(=O)Nc2ccc(F)cc2)nc2ccccc21 | inactive
Cc1ccc(NC(=O)Cc2ncc(C(F)(F)F)cc2Cl)cc1Cl | inconclusive: 1.41 µM [inhibitor, partial curve, poor fit]
CCN1CC(C)C(O)(c2ccccc2)CC1C (stereo not drawn) | inactive
CCOC(=O)c1nnc(-c2ccc(C)cc2)nc1Sc1ccc(Cl)cc1 | inconclusive: 35.5 µM [inhibitor, single point]
CCc1ccc(NC(=O)CC2C(=O)N(c3cccc(OC)c3)C(=O)N2Cc2ccc(F)cc2)cc1 (stereo not drawn) | inconclusive: 17.8 µM [inhibitor, partial curve, poor fit]
Cc1cc(C)n2nc(C(=O)OCC(=O)N(C)C3CCS(=O)(=O)C3)nc2n1 (stereo not drawn) | inactive
Fc1cccc(CCN2C(=S)NC[C@@H]2Cc2ccccc2)c1 | inconclusive: 22.4 µM [inhibitor, single point]
Cc1ccc(C(=O)NNC(=O)c2ccc3ccccc3c2)cc1 | inactive
